# The supplement of paper PMC5499739
# The full ranking holds about 16,000 sequences; the median of “Z-score” is about -0.37, and the highest 2% start at about 3.1. The list shows a part of the results.
# Tested on: RBM10 RRM1-ZnF-RRM2 (GST-tagged construct)
# Experiment: RNAcompete 7-mer binding Z-score; higher = stronger binding preference
# In short: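 GST-tagged RBM10 constructs (20 pmol) and a designed pool of 241 399 RNAs up to 41 nt (1.5 nmol) were allowed to bind for 30 min at 4°C in 1 ml Hepes pH 7.8 buffer with glutathione Sepharose beads. After four 2-min washes at 4°C, bound RNA was identified by microarray hybridisation. Enrichment was scored per heptamer motif as a one-sided Z-score across the probes containing it.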
row,Sequence,RNAcompete 7-mer binding Z-score
1,AGUUUUC,-0.526
2,ACCGGAA,0.17
3,UUCCGCU,-0.708
4,ACCUGCA,-0.799
5,GAACCAU,-0.5
6,UCUACCG,-0.715
7,UGUACCA,-0.446
8,UGGACAA,1.2
9,GACACUU,-0.908
10,AUGGAUA,2.5
11,GUCAAAG,0.41
12,GGGGGAA,2.61
13,CUGACUC,-0.701
14,AUGUUCU,-0.77
15,UUUUCAA,-0.581
16,ACGGCGG,1.11
17,CACUGUC,-0.788
18,ACUGCCC,-0.439
19,CACGCGA,-0.486
20,GCAACUU,-0.486
21,GGUCUCG,0.0677
22,UGGAUAA,1.07
23,GCGGGGA,3.23
24,ACAAGCG,0.366
25,GCACGUC,-0.326

row,Sequence,RNAcompete 7-mer binding Z-score
1,CCAUUUG,-0.963
2,CCGGGCA,0.0349
3,AUGACCA,-0.337
4,UGGUUCG,0.326
5,AUUGAGA,0.283
6,AAUCACA,-0.453
7,CACAGUG,0.21
8,UAGCUGU,-0.726
9,GUGUUUG,0.221
10,UGCUCCU,-0.923
11,CUGAGAU,-0.42
12,AACUUGG,0.0422
13,CGCCUCA,-0.748
14,GCAACUA,-0.296
15,ACGUUUC,-0.912
16,CGCGUCA,-0.304
17,CUUACAG,-0.595
18,UUACAGG,0.574
19,AGCCAAG,0.0386
20,UCUUGAC,-0.908
21,UGAACCC,-0.592
22,AUUCUGU,-0.737
23,UUACAUG,-0.337
24,UACAAGG,1.26
25,GCAAUCU,-0.643

row,Sequence,RNAcompete 7-mer binding Z-score
1,CACGGAC,0.0932
2,UCGUGCU,-0.577
3,AGGGGGU,3.03
4,GUGAUCC,-0.278
5,UAGUUGC,-0.344
6,CUGAUGC,-0.639
7,CCCUGAG,-0.602
8,AGCUGGG,2.13
9,GUAAAAA,0.253
10,GUACAUG,0.742
11,AACAUGU,-0.267
12,AGCUAUG,-0.205
13,CUAACUG,-0.61
14,ACCUAUG,-0.81
15,CGAAGCC,-0.449
16,GCAGCUU,-0.595
17,CCUAUCA,-0.883
18,GAGGCUU,-0.42
19,GGCAAUG,1.76
20,CGAACUU,-0.752
21,CAGCUUG,-0.621
22,CGGUGAG,1.64
23,AGCUAGC,-0.592
24,GAAUCAG,0.811
25,GCCCUCG,-0.774

row,Sequence,RNAcompete 7-mer binding Z-score
1,ACUAAUC,-0.69
2,UUCACCG,-0.701
3,CGAAGCU,-0.606
4,UCCAUCG,-0.628
5,UACCCUC,-0.763
6,GCAGUGG,2.37
7,GGUACUG,0.894
8,GACAACA,-0.0998
9,UUUGAUA,-0.726
10,AUAUUUA,-0.61
11,UCACCCC,-0.555
12,GCCGCAC,-0.661
13,GUAGGUC,1.22
14,GCAAACC,-0.442
15,CGAGAUA,-0.114
16,GAAUCGU,-0.337
17,AUCGCGA,-0.286
18,AGUCGUU,-0.0161
19,GGACUGU,0.239
20,ACGUUAG,-0.22
21,UGUGCCA,-0.511
22,AUCCUCA,-0.774
23,CUACACU,-0.617
24,GUGUUUU,-0.0197
25,CCUGCCA,-0.978
